The structures appear in SMILES notation. Hit rate of the full screen: of about 39,000 compounds, about 220 (0.56%) showed activity. The list shows a part of the results.
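Note: static incubation at 37 °C against the wild-type strain, values averaged over two biological replicates.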

This test relates to Escherichia coli K-12 BW25113. In words: relative growth (OD600 normalised to plate interquartile mean) (fraction); higher = less growth inhibition, active = 0.2 or less. To be noted: 50 µM; LB; incubation time: overnight (16-24 h).
For the compound `C[C@H](CO)N1C[C@H](C)[C@H](CN(C)C(=O)Nc2cccc3ccccc23)Oc2ccc(NC(=O)CCC(F)(F)F)cc2CC1=O`, the relative growth is inactive: 0.888. The result for `Cc1noc(C)c1S(=O)(=O)Nc1ccc2c(c1)CC(=O)N([C@H](C)CO)C[C@H](C)[C@@H](CN(C)Cc1ccncc1)O2` reads inactive: 0.916; that for `C[C@@H]1CCCCO[C@H](CN(C)C(=O)NC2CCCCC2)[C@@H](C)CN([C@H](C)CO)C(=O)c2cc(NC(=O)Nc3ccc(C(F)(F)F)cc3)ccc2O1`, inactive: 1.01. In the case of `CCCC#Cc1ccc2c(c1)O[C@@H](CN(C)Cc1ccc3c(c1)OCO3)[C@H](C)CN([C@@H](C)CO)S2(=O)=O` it was inactive: 1.04; in that of `C[C@H](CO)N1C[C@H](C)[C@@H](CN(C)S(=O)(=O)c2ccccc2)OCCCC[C@H](C)Oc2ccc(NC(=O)Nc3cccc4ccccc34)cc2C1=O`, inactive: 1.06; in that of `C[C@H]1CN([C@@H](C)CO)C(=O)Cc2cc(NS(=O)(=O)c3cn(C)cn3)ccc2O[C@H]1CN(C)Cc1ccc(C(=O)O)cc1`, inactive: 0.968. With `C[C@@H]1CCCCO[C@H](CN(C)CC2CCCCC2)[C@H](C)CN([C@H](C)CO)C(=O)c2cc(NS(=O)(=O)c3ccc(Cl)cc3)ccc2O1`, the relative growth is inactive: 0.965. Take `C[C@@H]1CN([C@H](C)CO)C(=O)Cc2cc(NC(=O)CCC(F)(F)F)ccc2O[C@H]1CN(C)S(=O)(=O)c1cccs1`: the relative growth was inactive: 0.984. As for `COc1ccc(S(=O)(=O)Nc2ccc3c(c2)C(=O)N([C@@H](C)CO)C[C@H](C)[C@@H](CN(C)Cc2ccc(C(=O)O)cc2)OCCCC[C@H](C)O3)cc1`, the relative growth was inactive: 1.

On to `C[C@H](CO)N1C[C@H](C)[C@@H](CN(C)C(=O)c2ccc(N3CCN(C)CC3)cc2)OCc2cn(nn2)CCCC1=O`, for which the relative growth is inactive: 0.988. The result for `C[C@H](CO)N1C[C@H](C)[C@@H](CN(C)C(=O)Nc2ccc3c(c2)OCO3)Oc2ccc(NC(=O)Nc3cccc4ccccc34)cc2C1=O` reads inactive: 1; that for `C[C@H]1CN([C@@H](C)CO)C(=O)Cc2cc(NS(C)(=O)=O)ccc2O[C@@H]1CN(C)C(=O)NC1CCCCC1`, inactive: 1.01; that for `C[C@@H]1CN([C@@H](C)CO)C(=O)c2cc(NC(=O)Nc3cccc4ccccc34)ccc2O[C@@H](C)CCCCO[C@H]1CN(C)C(=O)Cc1ccccc1`, inactive: 1.04. For the compound `COCC(=O)Nc1ccc2c(c1)C(=O)N(C)C[C@@H](OC)[C@H](C)CN(C(=O)Nc1ccccc1F)[C@H](C)CO2`, the relative growth was inactive: 1.02.

For `COc1ccc(NC(=O)N(C)C[C@H]2Oc3ccc(NC(=O)C4CC4)cc3CC(=O)N([C@@H](C)CO)C[C@@H]2C)cc1`, the relative growth was inactive: 1.01. In the case of `C[C@H](CO)N1C[C@H](C)[C@H](CN(C)C(=O)C2CCCCC2)Oc2ncc(C#CC3(O)CCCC3)cc2C1=O` it was inactive: 0.993. With `C[C@H]1CN([C@@H](C)CO)C(=O)Cc2cc(NS(=O)(=O)c3cccs3)ccc2O[C@@H]1CN(C)CC1CC1`, the relative growth is inactive: 0.977.

On to `Cc1noc(C)c1S(=O)(=O)Nc1ccc2c(c1)C(=O)N([C@@H](C)CO)C[C@H](C)[C@H](CN(C)S(C)(=O)=O)OCCCC[C@@H](C)O2`, for which the relative growth is inactive: 0.993. In the case of `C[C@@H]1CN([C@H](C)CO)S(=O)(=O)c2ccc(-c3cccnc3)cc2O[C@H]1CN(C)C(=O)c1cccc(F)c1`, the relative growth is inactive: 1.01. Regarding `C[C@@H]1CN([C@@H](C)CO)C(=O)c2cc(NC(=O)C3CCCCC3)ccc2O[C@@H](C)CCCCO[C@H]1CN(C)S(=O)(=O)c1ccc(F)cc1`, the relative growth was inactive: 1.01. On to `C[C@H]1CCCCO[C@H](CN(C)Cc2ccc(C(F)(F)F)cc2)[C@@H](C)CN([C@@H](C)CO)C(=O)c2cc(NS(C)(=O)=O)ccc2O1`, for which the relative growth is inactive: 0.974. For `C=C1C(=O)O[C@@H]2/C=C(\CO[C@@H]3O[C@H](CO)[C@@H](O)[C@H](O)[C@H]3O)CC/C=C3\C[C@H](OC3=O)[C@@H]12`, the relative growth is inactive: 0.997. Regarding `COc1ccc(S(=O)(=O)N(C)C[C@@H]2OCCCC[C@@H](C)Oc3ccc(NC(=O)C4CCCCC4)cc3C(=O)N([C@@H](C)CO)C[C@H]2C)cc1`, the relative growth is inactive: 1.02. Take `O=C(CN1CCOCC1)N[C@@H]1CC[C@@H](CCNC(=O)Nc2cc(F)ccc2F)O[C@H]1CO`: the relative growth is inactive: 0.996. In the case of `Cc1noc(C)c1S(=O)(=O)N(C)C[C@@H]1Oc2ccc(NS(=O)(=O)c3cn(C)cn3)cc2C(=O)N([C@@H](C)CO)C[C@@H]1C`, the relative growth was inactive: 1.03. The result for `COc1ccccc1CNC(=O)C[C@H]1C[C@H]2c3cc(NC(=O)c4ccc5c(c4)OCO5)ccc3O[C@H]2[C@@H](CO)O1` reads inactive: 1.03; that for `COc1ccc(CN(C)C[C@H]2OCCCC[C@@H](C)Oc3ccc(NS(=O)(=O)c4cccs4)cc3C(=O)N([C@H](C)CO)C[C@@H]2C)cc1`, inactive: 0.995; that for `C[C@H]1CN([C@@H](C)CO)C(=O)c2cccc(NC(=O)C3CCOCC3)c2O[C@H]1CN(C)S(=O)(=O)c1cccs1`, inactive: 0.983. In the case of `O=C(N[C@H]1CCCCNC1=O)c1ccco1` it was inactive: 0.98; in that of `C[C@@H]1CCCCO[C@H](CN(C)Cc2ccc3c(c2)OCO3)[C@H](C)CN([C@@H](C)CO)C(=O)c2cc(NC(=O)Nc3ccc4c(c3)OCO4)ccc2O1`, inactive: 1.02. In the case of `CC(=O)N(O)CCCCNC(=O)CCC(=O)N(O)CCCCCNC(=O)CCC(=O)N(O)CCCCCN` it was inactive: 0.857; in that of `C[C@H]1CN([C@@H](C)CO)C(=O)c2cc(NC(=O)CCN3CCOCC3)ccc2O[C@H]1CN(C)Cc1ccc2c(c1)OCO2`, inactive: 0.973; in that of `COc1ccccc1S(=O)(=O)N(C)C[C@@H]1Oc2cc(C#CCC(C)C)ccc2S(=O)(=O)N([C@H](C)CO)C[C@@H]1C`, inactive: 1.03. As for `CC(C)NC(=O)Nc1cccc2c1O[C@H](CN(C)S(=O)(=O)c1cn(C)cn1)[C@H](C)CN([C@@H](C)CO)C2=O`, the relative growth was inactive: 0.967.

Take `C[C@@H]1CN([C@H](C)CO)C(=O)c2cc(NS(=O)(=O)c3ccc(F)cc3)ccc2O[C@@H](C)CCCCO[C@@H]1CN(C)C(=O)Cc1ccccc1`: the relative growth is inactive: 0.939.

(Values after the supplement of paper PMC9446081.)
